Hit rate of the full screen: of about 39,000 compounds, about 220 (0.56%) showed activity. This is one part of the list.
System: Escherichia coli K-12 BW25113
Experiment: relative growth (OD600 normalised to plate interquartile mean) (fraction); higher = less growth inhibition, active = 0.2 or less
Details: 50 µM; LB; incubation time: overnight (16-24 h)
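Also: static incubation at 37 °C against the wild-type strain, values averaged over two biological replicates.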

| Compound | relative growth |
| --- | --- |
| Cc1noc(C)c1NC(=O)N(C)C[C@@H]1Oc2ncc(C#CCN(C)C)cc2C(=O)N([C@H](C)CO)C[C@@H]1C | inactive: 0.979 |
| C[C@H]1CN([C@@H](C)CO)C(=O)CCCn2nncc2CO[C@@H]1CN(C)C(=O)c1ccc(N2CCN(C)CC2)cc1 | inactive: 1 |
| O=C(C[C@H]1C[C@H]2c3cc(NS(=O)(=O)c4ccc(F)cc4)ccc3O[C@H]2[C@H](CO)O1)NCc1ccccc1F | inactive: 1 |
| Cc1ccc(S(=O)(=O)Nc2ccc3c(c2)C(=O)N([C@H](C)CO)C[C@H](C)[C@@H](CN(C)CC2CC2)O3)cc1 | inactive: 1 |
| C[C@H](CO)N1C[C@H](C)[C@@H](CN(C)C(=O)C2CCCCC2)Oc2cc(C#CC3CC3)ccc2S1(=O)=O | inactive: 1.03 |
| C[C@H](CO)N1C[C@H](C)[C@@H](CN(C)S(=O)(=O)c2cn(C)cn2)OCc2ccccc2-c2c(n(C)c3ccccc23)C1=O | inactive: 1.01 |
| C[C@@H]1CN([C@H](C)CO)S(=O)(=O)c2ccc(C3=CCCCC3)cc2O[C@@H]1CN(C)Cc1cncnc1 | inactive: 0.901 |
| CNS(=O)(=O)c1cccs1 | inactive: 1.01 |
| Cc1ccc(S(=O)(=O)Nc2cccc3c2O[C@@H](CN(C)CC2CC2)[C@@H](C)CN([C@@H](C)CO)C3=O)cc1 | inactive: 1.01 |
| CC1=C(C(=O)O)N2C(=O)[C@@H](NC(=O)[C@H](N)C3=CCC=CC3)[C@H]2SC1 | inactive: 1.03 |
| N=C(N)N1CCc2ccccc2C1.O=S(=O)(O)O | inactive: 1.02 |
| COc1ccc(NC(=O)Nc2ccc3c(c2)C(=O)N([C@H](C)CO)C[C@H](C)[C@H](CN(C)Cc2ccc(Cl)c(Cl)c2)OCCCC[C@@H](C)O3)cc1 | inactive: 0.999 |
| CC(C)OC(=O)c1cn(Cc2c(F)cccc2F)c2sc(-c3ccc(NC(=O)C(C)C)cc3)c(CN(C)Cc3ccccc3)c2c1=O | inactive: 1.02 |
| COc1cccc(NC(=O)N(C)C[C@H]2Oc3cc(Br)ccc3S(=O)(=O)N([C@H](C)CO)C[C@H]2C)c1 | inactive: 0.97 |
| C[C@@H]1CCCCO[C@@H](CN(C)Cc2ccc(C(=O)O)cc2)[C@H](C)CN([C@@H](C)CO)C(=O)c2cc(NS(=O)(=O)c3ccccc3)ccc2O1 | inactive: 1.04 |
| C[C@@H]1CN([C@@H](C)CO)C(=O)c2cccc(NC(=O)c3nc4ccccc4s3)c2O[C@H]1CN(C)C(=O)Nc1cccc2ccccc12 | inactive: 0.957 |
| COc1ccc(S(=O)(=O)N(C)C[C@@H]2Oc3ccc(NS(=O)(=O)c4c(C)noc4C)cc3C(=O)N([C@@H](C)CO)C[C@@H]2C)cc1 | inactive: 1.02 |
| O=P(O)(O)CN1CCN(CP(=O)(O)O)CCN(CP(=O)(O)O)CCN(CP(=O)(O)O)CC1 | inactive: 1.05 |
| COc1ccc(S(=O)(=O)N(C)C[C@@H]2OCCCC[C@H](C)Oc3ccc(NS(=O)(=O)c4ccc(Cl)cc4)cc3C(=O)N([C@@H](C)CO)C[C@H]2C)cc1 | inactive: 1.03 |

| Compound | relative growth |
| --- | --- |
| Cc1ccc(S(=O)(=O)Nc2ccc3c(c2)C(=O)N([C@@H](C)CO)C[C@@H](C)[C@H](CN(C)Cc2ccc(-c4ccccc4)cc2)O3)cc1 | inactive: 0.978 |
| COc1ccc(NC(=O)Nc2ccc3c(c2)CC(=O)N([C@H](C)CO)C[C@@H](C)[C@H](CN(C)C(=O)Nc2ccc(C(F)(F)F)cc2)O3)cc1 | inactive: 1.02 |
| Cc1nc(-c2ccccc2)cs1 | inactive: 1.07 |
| C[C@H](CO)N1C[C@H](C)[C@H](CN(C)C(=O)Nc2ccc(C(F)(F)F)cc2)Oc2ccc(NC(=O)Nc3ccc4c(c3)OCO4)cc2C1=O | inactive: 0.999 |
| C[C@@H]1CCCCO[C@@H](CN(C)C(=O)Nc2ccc3c(c2)OCO3)[C@H](C)CN([C@H](C)CO)C(=O)c2cc(NC(=O)Nc3ccc4c(c3)OCO4)ccc2O1 | inactive: 1.01 |
| C[C@@H]1CCCCO[C@H](CN(C)C(=O)Nc2ccccc2)[C@@H](C)CN([C@@H](C)CO)C(=O)c2cc(NS(=O)(=O)c3cccs3)ccc2O1 | inactive: 1.01 |
| Cc1ccc(S[C@]2(C(=O)NC3CC3)CC(=O)N(C3Cc4ccccc4C3)[C@@H]2c2ccc(CO)cc2I)cc1 | inactive: 1.02 |
| C[C@H]1CN([C@@H](C)CO)C(=O)c2cc(NS(C)(=O)=O)ccc2O[C@H]1CN(C)S(=O)(=O)c1ccc(F)cc1 | inactive: 1 |
| C[C@H](CO)N1C[C@H](C)[C@H](CN(C)S(=O)(=O)c2cn(C)cn2)Oc2c(NS(=O)(=O)c3cn(C)cn3)cccc2C1=O | inactive: 0.985 |
| Cc1ccc(S(=O)(=O)Nc2ccc3c(c2)CC(=O)N([C@@H](C)CO)C[C@@H](C)[C@@H](CN(C)CC2CC2)O3)cc1 | inactive: 0.986 |
| COc1ccc(NC(=O)N(C)C[C@H]2Oc3c(NC(=O)CCCCCC(=O)Nc4ccccc4N)cccc3C(=O)N([C@H](C)CO)C[C@@H]2C)cc1 | inactive: 1 |
| CO[C@@H]1CN(C)C(=O)c2cc(NC(=O)Nc3ccc(Cl)cc3)ccc2OC[C@H](C)N(C(=O)Nc2c(C)noc2C)C[C@@H]1C | inactive: 0.959 |
| C[C@@H]1CN([C@@H](C)CO)C(=O)Cc2cc(NC(=O)C3CCCCC3)ccc2O[C@@H]1CN(C)Cc1ccc(-c2ccccc2)cc1 | inactive: 1.04 |
| COCCNC(=O)C[C@@H]1CC[C@H]2[C@@H](COc3ccc(NS(=O)(=O)c4ccc(Cl)cc4)cc3C(=O)N2C)O1 | inactive: 1.03 |
| C[C@@H]1CN([C@@H](C)CO)C(=O)c2cc(NC(=O)c3ccccc3)ccc2O[C@@H](C)CCCCO[C@H]1CN(C)C(=O)Nc1ccc2c(c1)OCO2 | inactive: 1.02 |
| C[C@@H]1CCCCO[C@@H](CN(C)C(=O)C2CCCCC2)[C@H](C)CN([C@H](C)CO)C(=O)c2cc(NC(=O)Nc3ccccc3)ccc2O1 | inactive: 1.02 |
| COc1cccc(S(=O)(=O)N(C)C[C@H]2Oc3ncc(C#CCN(C)C)cc3C(=O)N([C@H](C)CO)C[C@@H]2C)c1 | inactive: 1.01 |
| C[C@@H]1CN([C@H](C)CO)C(=O)c2cc(NC(=O)Nc3cccc4ccccc34)ccc2O[C@@H](C)CCCCO[C@@H]1CN(C)Cc1ccc(C(=O)O)cc1 | inactive: 1.01 |

Reference: the supplement of paper PMC9446081
